Source: the supplement of paper PMC12217912
Some of the results follow. The full chains were built here from the parent and the listed change. Values near 0.05 are background.

B1: TEV protease; numbered along this chain (parent)
chain: MGESLFKGPRDYNPISSSICHLTNESDGHTTSLYGIGFGPFIITNKHLFRRNNGTLVVQSLHGVFKVKDTTTLQQHLVDGRDMIIIRMPKDFPPFPQKLKFREPQREERICLVTTNFQTKSMSSMVSDTSCTFPSGDGIFWKHWIQTKDGQCGSPLVSTRDGFIVGIHSASNFTNTNNYFTSVPKNFMELLTNQEAQQWVSGWRLNADSVLWGGHKVFMVKPEEPFQPVKEATQL

Variants of: B1
Assay: raw area under fraction-flipped curve 0-4 h after induction (AUC4h, not background-subtracted), DNA-recorder readout of cleavage of the substrate (dimensionless); higher = more cleavage of the substrate by the protease variant
Conditions: temperature: 34 °C; time window: 0-4 h after rhamnose induction
Protocol: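 In vivo DNA recorder in E. coli TOP10(DE3) ΔrhaA at 34 °C. Each TEVp single-site mutant (parent TEVp 0) is paired with a single-site variant of the 7-mer TEVs (canonical ENLYFQ|S). The substrate sits between flexible linkers in a Bxb1-sfGFP-TEVs-SsrA fusion, so cleavage stabilises Bxb1 and speeds flipping of a recombination array, read by NGS. The value is the raw area under the fraction-flipped curve over 0-4 h after rhamnose induction (AUC4h), with ≥20 reads per time point. It is not background-subtracted; inactive controls average about 0.047.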
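Also: Bxb1 expression induced with 0.2% (w/v) L-rhamnose at OD600 near 0.5, cultures sampled hourly, flipped fraction per protease–substrate barcode pair counted by paired-end Illumina sequencing.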

Variant | area with substrate ENAYFQS | area with substrate ENCYFQS | area with substrate ENDYFQS | area with substrate ENFYFQS | area with substrate ENGYFQS | area with substrate ENHYFQS | area with substrate ENIYFQS | area with substrate ENNYFQS | area with substrate ENPYFQS | area with substrate ENQYFQS | area with substrate ENTYFQS | area with substrate ENVYFQS | area with substrate ENWYFQS | area with substrate ENKYFQS | area with substrate ENMYFQS | area with substrate ENRYFQS | area with substrate ENSYFQS | area with substrate ENYYFQS | area with substrate ENEYFQS
MGESLFKGPRDYNPISSSICHLTNESDGHTTSLYGIGFGPFIITNKHLFRRNNGTLVVQSLHGVFKVKDTTTLQQHLVDGRDMIIIRMPKDFPPFPQKLKFREPQREERICLVTTNFQTKSMSSMVSDTSCTFPSGDGIFWKHWIQTKDGQCGSPLVSTRDGFIVGIHSASNFTNTNNYFTSVPKNFMELLTNQNAQQWVSGWRLNADSVLWGGHKVFMVKPEEPFQPVKEATQL [E195N] | 0.041 | 0.0621 | 0.0658 | 0.06 | 0.063 | 0.0574 | 0.118 | 0.067 | 0.0748 | 0.0617 | 0.0636 | 0.0587 | 0.0622 |  |  |  |  |  | 
MGESLFKGPRDYNPISSSICHLTNESDGHTTSLYGIGFGPFIITNKHLFRRNNGTLVVQSLHGVFKVKDTTTLQQHLVDGRDMIIIRMPKDFPPFPQKLKFREPQREERICLVTTNFQTKSMSSMVSDTSCTFPSGDGIFWKHWIQTKDGQCGSPLVSTRDGFIVGIHSASNFTNTNNYFTSVPKNFMELLTNQRAQQWVSGWRLNADSVLWGGHKVFMVKPEEPFQPVKEATQL [E195R] | 0.061 | 0.0641 | 0.0702 |  | 0.052 | 0.0412 | 0.106 | 0.0567 | 0.0567 | 0.084 | 0.0688 | 0.0696 |  | 0.0505 | 0.0725 | 0.0652 | 0.0658 |  | 
MGESLFKGPRDYNPISSSICHLTNESDGHTTSLYGIGFGPFIITNKHLFRRNNGTLVVQSLHGVFKVKDTTTLQQHLVDGRDMIIIRMPKDFPPFPQKLKFREPQREERICLVTTNFQTKSMSSMVSDTSCTFPSGDGIFWKHWIQTKDGQCGSPLVSTRDGFIVGIHSASNFTNTNNYFTSVPKNFMELLTNQAAQQWVSGWRLNADSVLWGGHKVFMVKPEEPFQPVKEATQL [E195A] | 0.0554 |  | 0.0714 | 0.0617 |  | 0.0772 | 0.145 |  |  | 0.0494 | 0.0681 |  |  | 0.0571 | 0.0617 | 0.0666 | 0.0553 | 0.0414 | 
MGESLFKGPRDYNPISSSICHLTNESDGHTTSLYGIGFGPFIITNKHLFRRNNGTLVVQSLHGVFKVKDTTTLQQHLVDGRDMIIIRMPKDFPPFPQKLKFREPQREERICLVTTNFQTKSMSSMVSDTSCTFPSGDGIFWKHWIQTKDGQCGSPLVSTRDGFIVGIHSASNFTNTNNYFTSVPKNFMELLTNQEWQQWVSGWRLNADSVLWGGHKVFMVKPEEPFQPVKEATQL [A196W] | 0.0615 |  | 0.0566 |  | 0.0963 |  | 0.0991 | 0.0591 |  | 0.0675 |  |  | 0.0642 | 0.0417 |  | 0.0503 |  |  | 0.0698
MGESLFKGPRDYNPISSSICHLTNESDGHTTSLYGIGFGPFIITNKHLFRRNNGTLVVQSLHGVFKVKDTTTLQQHLVDGRDMIIIRMPKDFPPFPQKLKFREPQREERICLVTTNFQTKSMSSMVSDTSCTFPSGDGIFWKHWIQTKDGQCGSPLVSTRDGFIVGIHSASNFTNTNNYFTSVPKNFMELLTNQEDQQWVSGWRLNADSVLWGGHKVFMVKPEEPFQPVKEATQL [A196D] | 0.0616 | 0.091 | 0.0672 | 0.0618 |  | 0.0614 |  | 0.0628 | 0.0743 | 0.0549 | 0.059 |  |  |  | 0.0942 | 0.0423 | 0.0448 | 0.0625 | 0.0721
MGESLFKGPRDYNPISSSICHLTNESDGHTTSLYGIGFGPFIITNKHLFRRNNGTLVVQSLHGVFKVKDTTTLQQHLVDGRDMIIIRMPKDFPPFPQKLKFREPQREERICLVTTNFQTKSMSSMVSDTSCTFPSGDGIFWKHWIQTKDGQCGSPLVSTRDGFIVGIHSASNFTNTNNYFTSVPKNFMELLTNQEFQQWVSGWRLNADSVLWGGHKVFMVKPEEPFQPVKEATQL [A196F] | 0.0562 | 0.0777 | 0.0685 | 0.0343 | 0.0656 | 0.0468 | 0.116 | 0.0511 | 0.0403 |  | 0.0577 | 0.0716 |  | 0.0827 |  |  | 0.0674 | 0.0558 | 0.058
MGESLFKGPRDYNPISSSICHLTNESDGHTTSLYGIGFGPFIITNKHLFRRNNGTLVVQSLHGVFKVKDTTTLQQHLVDGRDMIIIRMPKDFPPFPQKLKFREPQREERICLVTTNFQTKSMSSMVSDTSCTFPSGDGIFWKHWIQTKDGQCGSPLVSTRDGFIVGIHSASNFTNTNNYFTSVPKNFMELLTNQEAQQWVGGWRLNADSVLWGGHKVFMVKPEEPFQPVKEATQL [S201G] | 0.0608 | 0.0561 | 0.0485 | 0.0381 | 0.0679 | 0.0727 |  | 0.0534 | 0.0583 | 0.0643 | 0.073 | 0.073 |  | 0.0588 |  | 0.0692 | 0.0616 | 0.0682 | 0.0636
MGESLFKGPRDYNPISSSICHLTNESDGHTTSLYGIGFGPFIITNKHLFRRNNGTLVVQSLHGVFKVKDTTTLQQHLVDGRDMIIIRMPKDFPPFPQKLKFREPQREERICLVTTNFQTKSMSSMVSDTSCTFPSGDGIFWKHWIQTKDGQCGSPLVSTRDGFIVGIHSASNFTNTNNYFTSVPKNFMELPTNQEAQQWVSGWRLNADSVLWGGHKVFMVKPEEPFQPVKEATQL [L191P] | 0.0498 | 0.0561 | 0.0551 | 0.0775 |  |  | 0.0551 |  | 0.0574 | 0.0702 |  | 0.0468 |  | 0.0576 |  |  | 0.0551 |  | 
MGESLFKGPRDYNPISSSICHLTNESDGHTTSLYGIGFGPFIITNKHLFRRNNGTLVVQSLHGVFKVKDTTTLQQHLVDGRDMIIIRMPKDFPPFPQKLKFREPQREERICLVTTNFQTKSMSSMVSDTSCTFPSGDGIFWKHWIQTKDGQCGSPLVSTRDGFIVGIHSASNFTNTNNYFTSVPKNFMTLLTNQEAQQWVSGWRLNADSVLWGGHKVFMVKPEEPFQPVKEATQL [E189T] | 0.0553 | 0.0709 |  | 0.041 | 0.0696 | 0.0423 | 0.124 | 0.0671 |  | 0.0586 | 0.0577 | 0.0932 |  |  |  | 0.0533 |  |  | 0.051
